Measured values published in the supplement of paper PMC3334620.
The full ranking holds about 33,000 sequences; the median of “E-score (-0.5 to 0.5)” is about -0.012, and the highest 2% start at about 0.29. The list shows a part of the results.

The sequences below were run against T1, Ybr033w (UniProt P38073) (assay: PBM E-score (8-mer binding enrichment) (E-score (-0.5 to 0.5)); higher = stronger / more preferred TF binding; most listed sequences are background and not binding sites). Conditions: protein concentration: 200 nM; construct: GST-full length.
T1 sequence: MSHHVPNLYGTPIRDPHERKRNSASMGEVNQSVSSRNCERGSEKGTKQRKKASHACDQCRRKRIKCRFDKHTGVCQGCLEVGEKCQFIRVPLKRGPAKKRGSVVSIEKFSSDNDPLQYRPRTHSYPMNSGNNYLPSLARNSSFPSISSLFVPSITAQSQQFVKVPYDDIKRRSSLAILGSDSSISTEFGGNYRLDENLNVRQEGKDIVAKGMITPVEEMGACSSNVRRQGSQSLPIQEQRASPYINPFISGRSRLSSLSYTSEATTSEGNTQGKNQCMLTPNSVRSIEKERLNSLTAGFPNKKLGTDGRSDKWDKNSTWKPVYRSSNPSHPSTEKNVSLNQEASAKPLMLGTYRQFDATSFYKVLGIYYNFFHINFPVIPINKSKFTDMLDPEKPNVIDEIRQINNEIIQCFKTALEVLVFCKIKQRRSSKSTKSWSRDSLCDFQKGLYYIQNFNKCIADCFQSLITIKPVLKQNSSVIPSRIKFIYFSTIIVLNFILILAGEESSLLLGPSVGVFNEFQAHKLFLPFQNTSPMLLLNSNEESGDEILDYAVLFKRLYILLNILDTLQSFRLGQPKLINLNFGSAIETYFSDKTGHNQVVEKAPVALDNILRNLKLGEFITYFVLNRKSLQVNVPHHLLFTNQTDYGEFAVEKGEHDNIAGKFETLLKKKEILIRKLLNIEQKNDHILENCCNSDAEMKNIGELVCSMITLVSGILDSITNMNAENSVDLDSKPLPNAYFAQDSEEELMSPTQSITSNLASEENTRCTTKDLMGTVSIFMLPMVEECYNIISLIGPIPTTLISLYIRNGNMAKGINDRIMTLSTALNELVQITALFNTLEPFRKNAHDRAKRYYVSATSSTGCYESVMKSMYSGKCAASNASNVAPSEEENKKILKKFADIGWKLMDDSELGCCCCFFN
How it was run: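 Universal all-10-mer Agilent arrays, fresh or stripped once, were converted to double-stranded form by primer extension. GST-tagged yeast transcription factors from PURExpress in vitro transcription/translation, full-length or DNA-binding domain only, were applied at about 100-200 nM and detected with fluorescent anti-GST. After masliner normalisation, the Universal PBM Analysis Suite scored each ungapped eight-base word together with its reverse complement by E-score.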

Sequence | PBM E-score
CCGACACA | -0.202
ATTATATA | 0.297
AGGCCGCA | -0.0886
AGGTCCAT | -0.155
CACTCACA | -0.155
TCGCTAAA | 0.0515
ACTGTTCA | -0.106
AGGAACTC | -0.0312
GACACATA | 0.0666
AGTAACGA | 0.0428
AACGCAGC | 0.01
AAGGTAGT | 0.0535
AAGCGACA | -0.0531
CGCTTGAG | -0.0728
AATTTCGT | 0.171
AGATAAAA | 0.286
ACCTTTGA | -0.004
ACGTCATG | -0.0366
ATTACGCG | 0.0111
ACCAGCGA | -0.139
CGGGTAAC | -0.176
GCAATCGA | 0.0856

Sequence | PBM E-score
ATCCTCAA | 0.158
CAGCCGCA | -0.102
GAATTCAC | 0.0365
GTATCCAA | 0.117
TCCAATCA | 0.0621
CTCGTTGA | -0.056
AAATTAGA | 0.225
CCATGTGA | -0.0886
CACCGGAA | 0.178
GAAAGTCC | -0.074
ATTGACAG | -0.0692
CTTCGGGC | -0.246
GGTACTAC | 0.0644
GCGAAGCA | -0.117
AGTGGCAT | -0.036
CCACTAAG | -0.0298
CGCAGTTC | -0.0876
AGTAGCCC | -0.055
GGAGGACC | -0.327
TATTGGGA | 0.165
AGATTTTA | 0.109
AGACTCAG | 0.00993

Sequence | PBM E-score
AGGACTGC | -0.353
CCCGATTA | 0.0442
CACCGATG | -0.241
CTGCACAG | -0.0409
CGGACTAA | 0.121
AGTTTTGC | 0.247
AGGGATGG | -0.072
TAGCTAAA | 0.0815
GGGAAGAC | -0.19
ACGACGCA | 0.0506
AATCCCCA | 0.0287
CACACCAG | -0.057
GTGGGCGA | 0.0877
GTATTCGA | -0.2
ACGGATCT | -0.0351
CCGGAGAC | 0.0322
ACAGACCA | 0.0694
ATAGAACC | 0.069
CAGAGGAC | -0.0681
ACTAGTAT | 0.24
GCGTTGTA | -0.0845
CCATGAAA | 0.143

Sequence | PBM E-score
CTAGCCAC | -0.227
TAAAGAAA | 0.273
AGCTACGC | -0.139
ACGAACGC | -0.0736
ACGTTAGG | 0.0113
ACTGAAAA | 0.0442
ATCACCAG | -0.00414
GGTAGTCA | -0.15
CGCGGATA | 0.24
CTTAGCTA | -0.0586
ACGCCTCG | -0.18
CTTCTCTC | 0.0872
ACAAGGGT | -0.0518
AGTAGCAC | -0.0755
TCATGGAA | 0.154
GGAACTCA | 0.0469
ACATGGGT | -0.0816
TCATAGGA | 0.0261
AAGGATAG | 0.0976
CTGACCGC | -0.181
CTGGCTTC | -0.174
ACGAAAAC | 0.166

Sequence | PBM E-score
CTATCGTC | -0.0866
CAAAACTG | 0.146
ATCCCAAC | 0.079
AAGCGGCT | -0.109
AAAGTCGT | 0.0565
ACATGCCG | -0.09
TATGGGGA | 0.0807
AAGGACGT | -0.0394
ATCATAGA | 0.209
ATCGGTAC | -0.0348
TAGCGCTA | -0.136
ATTAAACG | 0.27
CGACTGCC | -0.0953
GACCTTCA | -0.0804
ACAGCTCG | -0.0436
ACAGGCGA | -0.149
CTAGTAAA | 0.242
AAGACTAA | 0.0332
GTTTAAAA | 0.122
AATGTGAG | 0.0512
TGATGGAA | 0.124
ATGTCACA | 0.116
